Molecules are shown by their SMILES. The whole screen tested about 39,000 compounds, of which about 220 (0.56%) showed activity. The list shows a part of the results.
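Also: static incubation at 37 °C against the wild-type strain, values averaged over two biological replicates.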

This experiment concerns Escherichia coli K-12 BW25113. The experiment is described as follows: relative growth (OD600 normalised to plate interquartile mean) (fraction); higher = less growth inhibition, active = 0.2 or less. The conditions noted are these: 50 µM; LB; incubation time: overnight (16-24 h).
As to `CCS(=O)(=O)N1C[C@]2(CN(Cc3cc(ccc3F)F)C2)c2c(n(c3cc(ccc23)OC)C)[C@H]1CO`, the relative growth is inactive: 0.988.
As for `C[C@H](CO)N1C[C@H](C)[C@@H](CN(C)C(=O)NC2CCCCC2)Oc2c(NC(=O)C3CC3)cccc2C1=O`, the figure is inactive: 1.01; as for `C[C@H]1CCCCO[C@H](CN(C)Cc2ccncc2)[C@@H](C)CN([C@@H](C)CO)C(=O)c2cc(NS(=O)(=O)c3ccc(Cl)cc3)ccc2O1`, inactive: 0.99.
For `Cc1cc(=O)nc(-n2ncc(C#N)c2N)[nH]1` the value was inactive: 1.01; for `NC(=O)CSc1nnnn1-c1cccc(O)c1`, inactive: 0.984; for `C[C@]12NC(=O)N[C@H](c3ccccc3O1)[C@H]2CO`, inactive: 1.03.
As for `Cn1cnc(=N)c2[nH]cnc21`, the figure is inactive: 0.995; as for `CO[C@H]1CN(C)C(=O)c2ccc(NC(=O)NC(C)C)cc2OC[C@H](C)N(Cc2ccc(-c3ccccn3)cc2)C[C@H]1C`, inactive: 0.999; as for `CCS(=O)(=O)N1CC[C@]2(CC1)CN([C@@H](CO)c1c2c2ccc(cc2n1C)OC)C(=O)c1cccc(c1)F`, inactive: 1.
In the case of `CCc1cccc(NC(=O)O[C@H]2[C@H](OC(=O)Nc3ccccc3-c3ccccc3)[C@H](OC(=O)Nc3ccccc3-c3ccccc3)[C@@H](OC)O[C@@H]2CO)c1`, the relative growth is inactive: 1.02.
For `C[C@H]1CCCCO[C@@H](CN(C)Cc2ccc(C(=O)O)cc2)[C@@H](C)CN([C@@H](C)CO)C(=O)c2cc(NC(=O)C3CCCCC3)ccc2O1` the value was inactive: 0.992; for `Cc1nc(N(C)C)ncc1C(=O)O`, inactive: 1.01; for `Cc1ccc(S(=O)(=O)N[C@@H](Cc2ccccc2)C(=O)NCCn2cc(CCC(=O)NO)nn2)cc1`, inactive: 0.999.
For `C[C@H](CO)N1C[C@H](C)[C@@H](CN(C)Cc2ccncc2)Oc2ccc(NS(=O)(=O)c3cccs3)cc2C1=O` the value was inactive: 0.989; for `O=C1[C@H](Cc2ccc(C(F)(F)F)cc2)CCn2cc(nn2)COC[C@@H]2CCCCN2C(=O)[C@H](Cc2ccc(C(F)(F)F)cc2)CCn2cc(nn2)COC[C@@H]2CCCCN12`, inactive: 0.996; for `COc1ccc(NC(=O)N(C)C[C@H]2Oc3ccc(NS(=O)(=O)c4cn(C)cn4)cc3C(=O)N([C@@H](C)CO)C[C@H]2C)cc1`, inactive: 0.956.
As for `COc1ccc(CN(C)C[C@@H]2OCCCC[C@@H](C)Oc3ccc(NS(=O)(=O)c4ccc(C)cc4)cc3C(=O)N([C@@H](C)CO)C[C@H]2C)cc1`, the figure is inactive: 0.999.
Turning to `C[C@H]1CN([C@@H](C)CO)C(=O)c2cccc(NC(=O)c3ccncc3)c2O[C@H]1CN(C)S(=O)(=O)c1ccc(F)cc1`, the relative growth is inactive: 1.
Consider `C[C@H](CO)N1C[C@H](C)[C@@H](CN(C)S(=O)(=O)c2cn(C)cn2)Oc2ncc(/C=C/c3ccccc3)cc2C1=O`, for which the relative growth is inactive: 1.03.
For `CO[C@@H](CN(C)C(=O)c1ccc2c(c1)OCO2)[C@@H](C)CN([C@H](C)CO)S(=O)(=O)c1ccc(F)cc1` the value was inactive: 0.946; for `Cc1ccc(S(=O)(=O)N[C@@H](Cc2ccccc2)C(=O)NCCn2cc(CN3C(=O)COC[C@H]3c3ccccc3)nn2)cc1`, inactive: 0.986; for `COc1ccc2c3c([nH]c2c1)[C@H](CO)N(C[C@]13CCN(CC1)C(=O)Nc1ccc(cc1)F)C(=O)c1ccc(cc1)F`, inactive: 0.984.
Take `C[C@@H]1CN([C@@H](C)CO)C(=O)Cc2cc(NS(C)(=O)=O)ccc2O[C@@H]1CN(C)Cc1ccc(C(F)(F)F)cc1`: the relative growth was inactive: 1.02.
Consider `C[C@@H]1CN([C@H](C)CO)C(=O)c2ccccc2-c2ccccc2CO[C@@H]1CN(C)Cc1ccc(Oc2ccccc2)cc1`, for which the relative growth was inactive: 0.997.
As for `C[C@@H](O)C#Cc1ccc2c(c1)O[C@H](CN(C)C(=O)c1ccccc1)[C@@H](C)CN([C@@H](C)CO)S2(=O)=O`, the figure is inactive: 1; as for `C[C@@H]1CCCCO[C@H](CN(C)S(=O)(=O)c2ccc(F)cc2)[C@@H](C)CN([C@@H](C)CO)C(=O)c2cc(NC(=O)C3CCCCC3)ccc2O1`, inactive: 1.02; as for `COc1ccc(Cn2cc[nH]c(=O)c2=O)cc1`, inactive: 0.996.
For `CC(C)NC(=O)Nc1ccc2c(c1)C(=O)N([C@@H](C)CO)C[C@@H](C)[C@@H](CN(C)C(=O)Nc1ccc3c(c1)OCO3)O2` the value was inactive: 0.991; for `C[C@@H]1CCCCO[C@H](CN(C)Cc2ccc(Cl)c(Cl)c2)[C@H](C)CN([C@@H](C)CO)C(=O)c2cc(NC(=O)Nc3ccc4c(c3)OCO4)ccc2O1`, inactive: 0.997; for `CN1C[C@@H](CO)Oc2ccccc21`, inactive: 1.02.
For `COc1ccc2c(c1)OCC(=Cc1ccc(OC)c(O)c1)C2=O` the value was inactive: 1.05; for `CC(NC(=NC#N)Nc1ccncc1)C(C)(C)C` (configuration not stated), inactive: 1.1; for `C[C@@H]1CN([C@H](C)CO)C(=O)c2cc(NC(=O)c3ccncc3)ccc2O[C@@H](C)CCCCO[C@H]1CN(C)C(=O)Nc1cccc2ccccc12`, inactive: 1.02.
For the compound `C[C@@H]1CN([C@H](C)CO)C(=O)CCCn2cc(nn2)CO[C@H]1CN(C)C(=O)Nc1ccc2c(c1)OCCO2`, the relative growth was inactive: 1.
As to `Cc1noc(C)c1S(=O)(=O)Nc1ccc2c(c1)C(=O)N([C@@H](C)CO)C[C@@H](C)[C@H](CN(C)S(=O)(=O)c1cn(C)cn1)OCCCC[C@H](C)O2`, the relative growth is inactive: 0.994.
For `Cc1noc(C)c1S(=O)(=O)N(C)C[C@@H]1OCCCC[C@H](C)Oc2ccc(NC(=O)Nc3cccc4ccccc34)cc2C(=O)N([C@H](C)CO)C[C@@H]1C` the value was inactive: 1.04.
With `C[C@@H]1CN([C@H](C)CO)C(=O)Cc2cc(NS(=O)(=O)c3ccc(Cl)cc3)ccc2O[C@H]1CN(C)Cc1ccc(C(F)(F)F)cc1`, the relative growth is inactive: 0.959.
For `CC(C=CC=C(C)C=CC1=C(C)C(=O)C(O)CC1(C)C)=CC=CC=C(C)C=CC=C(C)C=CC1=C(C)C(=O)C(O)CC1(C)C` (configuration not stated) the value was inactive: 1.03; for `COc1cccc(NC(=O)N(C)C[C@@H]2Oc3ncc(C#Cc4ccncc4)cc3C(=O)N([C@H](C)CO)C[C@H]2C)c1`, inactive: 0.973.
As for `COc1cccc(C(=O)Nc2ccc3c(c2)C(=O)N(C)[C@H]2CC[C@H](CC(=O)NCCCN4CCOCC4)O[C@@H]2CO3)c1`, the figure is inactive: 1.02; as for `COCC(=O)N(C)C[C@H]1Oc2cc(C#Cc3cccnc3)ccc2S(=O)(=O)N([C@H](C)CO)C[C@H]1C`, inactive: 1.
Take `C[C@H]1CN([C@@H](C)CO)C(=O)c2cccc(NS(=O)(=O)c3ccc(F)cc3)c2O[C@H]1CN(C)Cc1ccc(-c2ccccc2)cc1`: the relative growth is inactive: 1.
For `CC(C)CNC(=O)[C@@H]1c2ccccc2C(=O)N(Cc2cc(F)cc(C(F)(F)F)c2)[C@H]1c1ccc(CO)cc1` the value was inactive: 0.996.
In the case of `C[C@@H]1CN([C@@H](C)CO)C(=O)CCCn2cc(nn2)CO[C@@H]1CN(C)C(=O)Nc1ccc2c(c1)OCCO2`, the relative growth was inactive: 0.988.
For `C[C@@H]1CN([C@@H](C)CO)C(=O)c2cc(NC(=O)Nc3ccccc3)ccc2O[C@@H]1CN(C)CC1CCCCC1` the value was inactive: 0.928.
As for `OCCN1CCN(c2ncnc3c2ncn3[C@H]2CN(Cc3ccccc3)C[C@@H](CO)O2)CC1`, the figure is inactive: 1.03.
On to `Cc1ccc(S(=O)(=O)Nc2ccc3c(c2)C(=O)N([C@@H](C)CO)C[C@@H](C)[C@@H](CN(C)C(=O)C2CCCCC2)OCCCC[C@@H](C)O3)cc1`, for which the relative growth was inactive: 0.99.
Consider `COc1ccc(S(=O)(=O)Nc2cccc3c2O[C@@H](CN(C)Cc2ccc(-c4ccccc4)cc2)[C@@H](C)CN([C@@H](C)CO)C3=O)cc1`, for which the relative growth was inactive: 1.01.
As for `C[C@H]1CN([C@@H](C)CO)C(=O)c2cc(C#CC3(O)CCCC3)cnc2O[C@@H]1CN(C)C(=O)Cc1ccccc1`, the figure is inactive: 1.01; as for `C[C@H]1CN([C@@H](C)CO)C(=O)Cc2cc(NC(=O)Cn3cnnn3)ccc2O[C@H]1CN(C)C(=O)NC1CCCCC1`, inactive: 1.02.
As for `C[C@H]1CN([C@@H](C)CO)C(=O)CCCn2nncc2CO[C@H]1CN(C)C(=O)Nc1ccc(N2CCN(C)CC2)cc1`, the figure is inactive: 0.977; as for `COc1ccc(CCNC(=O)[C@@]2(c3ccccc3)CC(=O)N(Cc3ccccc3)[C@@H]2c2ccc(COC(=O)NCCCCCC(=O)NO)cc2I)cc1`, inactive: 1.01; as for `C[C@@H]1CN([C@@H](C)CO)C(=O)CCCn2nncc2CO[C@H]1CN(C)C(=O)c1ccc(N2CCN(C)CC2)cc1`, inactive: 0.97.
Consider `COc1cccc(NC(=O)N(C)C[C@H]2Oc3cc(C#CC4(O)CCCC4)ccc3S(=O)(=O)N([C@H](C)CO)C[C@@H]2C)c1`, for which the relative growth is inactive: 1.02.
`COCCn1c(=NN)[nH]c2ccsc2c1=O`: the relative growth is inactive: 0.982.
As for `Cc1ccc(S[C@]2(C(=O)O)CC(=O)N(Cc3cc(C(F)(F)F)cc(C(F)(F)F)c3)[C@@H]2c2ccc(CO)cc2I)cc1`, the figure is inactive: 0.962.
Consider `C=C1C(=O)C(O)[C@H]2O[C@H]2C1=O` (some centres not stated), for which the relative growth is inactive: 0.883.
As for `COC(=O)[C@@H](Cc1ccc(-n2cc(C(=O)NO)nn2)cc1)N1CC2=CC(=O)[C@@H](C3CC3)[C@@H]2[C@H]1[C@H](O)Cc1ccccc1`, the figure is inactive: 0.987; as for `C[C@H](CO)N1C[C@H](C)[C@@H](CN(C)S(=O)(=O)c2ccc(F)cc2)OCCCC[C@H](C)Oc2ccc(NC(=O)Nc3ccc(C(F)(F)F)cc3)cc2C1=O`, inactive: 1.01; as for `NCCc1ccn[nH]1`, inactive: 0.976.
Turning to `COc1ccc(C2Sc3ccccc3N(CCN(C)C)C(=O)C2OC(C)=O)cc1.Cl` (configuration not stated), the relative growth was inactive: 1.12.
As for `C[C@H]1CN([C@@H](C)CO)C(=O)c2cccc(NC(=O)C3CCCCC3)c2O[C@H]1CN(C)C(=O)Nc1ccc(C(F)(F)F)cc1`, the figure is inactive: 0.925.

These data come from the supplement of paper PMC9446081.
